Reference: PubChem BioAssay (NCI)
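Growth conditions: 96-well plates. Treatment: test compound, 48 hours, 5 concentrations. Analysis: linear interpolation between bracketing concentrations; unreached endpoints set to highest concentration. GI50 is the concentration that inhibits growth by half.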 A number of entries come with more than one value. The other results are left out here. There may be further records. For part of these data: A record mostly stands for its own series of concentrations, which the source does not state; some values may only mark the edge of a range. Records carry a tag for their origin. Letters hold for one entry only. For part of these data: Values given together are repeated measurements across runs, samples, wells, individuals or studies.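 TGI denotes the concentration required for complete inhibition of growth.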

Columns and labels:
Experiment in all cases: NCI-60 cell line screen, 48 h
CCRF-CEM leukemia = test system: CCRF-CEM leukemia
MCF7 breast = test system: MCF7 breast
SK-MEL-5 melanoma = test system: SK-MEL-5 melanoma
DMS 114 small cell lung = test system: DMS 114 small cell lung
RXF 393 renal = test system: RXF 393 renal
DLD-1 colon = test system: DLD-1 colon
SW-620 colon = test system: SW-620 colon
ACHN renal = test system: ACHN renal
SK-MEL-2 melanoma = test system: SK-MEL-2 melanoma
CAKI-1 renal = test system: CAKI-1 renal
SK-OV-3 ovarian = test system: SK-OV-3 ovarian
PC-3 prostate = test system: PC-3 prostate
HL-60(TB) leukemia = test system: HL-60(TB) leukemia
A549 NSCLC = test system: A549 NSCLC
SF-295 CNS = test system: SF-295 CNS
HCT-116 colon = test system: HCT-116 colon
MOLT-4 leukemia = test system: MOLT-4 leukemia
RPMI-8226 leukemia = test system: RPMI-8226 leukemia
LOX IMVI melanoma = test system: LOX IMVI melanoma
HCC-2998 colon = test system: HCC-2998 colon
UO-31 renal = test system: UO-31 renal
NCI-H226 lung = test system: NCI-H226 lung

With `Nc1ncn(C2OC(CO)C(O)C2O)c(=O)n1` (stereo not drawn) the TGI (CCRF-CEM leukemia) was 33.3 µM [sample A, mean of 15 tests] and > 71.2 µM [sample B, mean of 3 tests] and 69.3 µM [sample B, mean of 5 tests] and 33 µM [sample B, mean of 6 tests], the TGI (MCF7 breast) was > 250 µM [sample A, mean of 12 tests] and > 69.5 µM [sample B, mean of 3 tests] and 56.6 µM [sample B, mean of 4 tests] and 21.9 µM [sample B, mean of 8 tests] and the TGI (SK-MEL-5 melanoma) was > 250 µM [sample A, mean of 12 tests] and 6.98 µM [sample B, mean of 10 tests] and 15.3 µM [sample B, mean of 3 tests] and 6.25 µM [sample B, mean of 6 tests]. For the same molecule, the TGI (DMS 114 small cell lung) was > 220 µM [sample A, mean of 9 tests] and 12.5 µM [sample B, mean of 5 tests], the GI50 (RXF 393 renal) was > 175 µM [sample A, mean of 14 tests] and 659 nM [sample B, mean of 10 tests] and 425 nM [sample B, mean of 3 tests] and 511 nM [sample B, mean of 6 tests] and the TGI (RXF 393 renal) was > 238 µM [sample A, mean of 14 tests] and 4.4 µM [sample B, mean of 10 tests] and 3.26 µM [sample B, mean of 3 tests] and 7.66 µM [sample B, mean of 6 tests]. The GI50 (DLD-1 colon) was > 243 µM [sample A, mean of 8 tests] and 795 nM [sample B, mean of 5 tests], the TGI (DLD-1 colon) was > 250 µM [sample A, mean of 8 tests] and 24 µM [sample B, mean of 5 tests] and the TGI (SW-620 colon) was > 250 µM [sample A, mean of 14 tests] and 54.2 µM [sample B, mean of 3 tests] and 28.6 µM [sample B, mean of 6 tests] and > 53.3 µM [sample B, mean of 9 tests]. For the same molecule, the TGI (ACHN renal) was 225 µM [sample A, mean of 4 tests] and 16 µM [sample B, mean of 3 tests] and 3.85 µM [sample B, mean of 4 tests] and 8.56 µM [sample B, mean of 6 tests], the GI50 (SK-MEL-2 melanoma) was 112 µM [sample A, mean of 10 tests] and 493 nM [sample B, mean of 3 tests] and 250 nM [sample B, mean of 6 tests] and 444 nM [sample B, mean of 9 tests] and the TGI (SK-MEL-2 melanoma) was > 246 µM [sample A, mean of 10 tests] and 2.71 µM [sample B, mean of 3 tests] and 1.44 µM [sample B, mean of 6 tests] and 1.32 µM [sample B, mean of 9 tests]. The GI50 (CAKI-1 renal) was 14.4 µM [sample A, 1 test] and 55.6 µM [sample A, mean of 12 tests] and 385 nM [sample B, mean of 3 tests] and 271 nM, 570 nM [sample B, mean of 6 tests], the TGI (CAKI-1 renal) was > 206 µM [sample A, mean of 12 tests] and 5.43 µM [sample B, mean of 3 tests] and 3.67 µM, 2.31 µM [sample B, mean of 6 tests] and the GI50 (SK-OV-3 ovarian) was > 182 µM [sample A, mean of 12 tests] and 2.42 µM [sample B, mean of 10 tests] and 2.72 µM [sample B, mean of 3 tests] and 3.66 µM [sample B, mean of 6 tests]. The TGI (SK-OV-3 ovarian) was > 205 µM [sample A, mean of 12 tests] and 14.6 µM [sample B, mean of 10 tests] and 12.8 µM [sample B, mean of 3 tests] and 13.8 µM [sample B, mean of 6 tests], the GI50 (PC-3 prostate) was > 130 µM [sample A, mean of 4 tests] and 2.31 µM [sample B, mean of 3 tests] and 609 nM [sample B, mean of 4 tests] and 1.24 µM [sample B, mean of 6 tests] and the TGI (PC-3 prostate) was > 250 µM [sample A, mean of 4 tests] and 27.7 µM [sample B, mean of 3 tests] and 8 µM [sample B, mean of 4 tests] and 31.5 µM [sample B, mean of 6 tests]. The TGI (HL-60(TB) leukemia) was > 198 µM [sample A, mean of 11 tests] and 4.54 µM [sample B, mean of 3 tests] and 15.9 µM [sample B, mean of 4 tests] and 1.4 µM [sample B, mean of 7 tests], the TGI (A549 NSCLC) was > 210 µM [sample A, mean of 15 tests] and 22.4 µM [sample B, mean of 10 tests] and 36.1 µM [sample B, mean of 3 tests] and 11.8 µM [sample B, mean of 6 tests] and the GI50 (SF-295 CNS) was > 238 µM [sample A, mean of 10 tests] and 2.45 µM [sample B, mean of 3 tests] and 1.99 µM [sample B, mean of 6 tests] and 1.6 µM [sample B, mean of 8 tests]. For the same molecule, the TGI (SF-295 CNS) was > 250 µM [sample A, mean of 10 tests] and 19.3 µM [sample B, mean of 3 tests] and 18.5 µM [sample B, mean of 6 tests] and 13.1 µM [sample B, mean of 8 tests], the GI50 (HCT-116 colon) was 18.1 µM [sample A, 1 test] and 19 µM [sample A, mean of 15 tests] and 459 nM [sample B, 1 test] and 242 nM, 544 nM [sample B, mean of 4 tests] and the TGI (HCT-116 colon) was > 250 µM [sample A, mean of 15 tests] and 1.98 µM, 1.83 µM [sample B, mean of 4 tests]. For the same molecule, the TGI (MOLT-4 leukemia) was 51.2 µM [sample A] and 12.2 µM, 28.3 µM, 5.8 µM [sample B], the GI50 (RPMI-8226 leukemia) was > 236 µM [sample A, mean of 12 tests] and 364 nM [sample B, mean of 3 tests] and 326 nM [sample B, mean of 5 tests] and 380 nM [sample B, mean of 8 tests] and the TGI (RPMI-8226 leukemia) was > 250 µM [sample A, mean of 12 tests] and 6.52 µM [sample B, mean of 3 tests] and 18.8 µM [sample B, mean of 5 tests] and 2.69 µM [sample B, mean of 8 tests]. The GI50 (LOX IMVI melanoma) was 56.6 µM [sample A, 1 test] and 17.6 µM [sample A, mean of 13 tests] and 373 nM [sample B, mean of 3 tests] and 329 nM [sample B, mean of 6 tests] and 492 nM [sample B, mean of 9 tests], the TGI (LOX IMVI melanoma) was > 206 µM [sample A, mean of 13 tests] and 1.89 µM [sample B, mean of 3 tests] and 2.23 µM [sample B, mean of 6 tests] and 2.41 µM [sample B, mean of 9 tests] and the GI50 (HCC-2998 colon) was 212 µM [sample A, mean of 8 tests] and 1.4 µM [sample B, mean of 3 tests] and 417 nM [sample B, mean of 6 tests] and 511 nM [sample B, mean of 7 tests]. For the same molecule, the TGI (HCC-2998 colon) was > 250 µM [sample A, mean of 8 tests] and 6.97 µM [sample B, mean of 3 tests] and 2.26 µM [sample B, mean of 6 tests] and 2.5 µM [sample B, mean of 7 tests], the TGI (UO-31 renal) was > 250 µM [sample A, mean of 14 tests] and 4.81 µM [sample B, mean of 2 tests] and 5.21 µM [sample B, mean of 3 tests] and 5.56 µM [sample B, mean of 5 tests] and the TGI (NCI-H226 lung) was > 250 µM [sample A, mean of 10 tests] and 11.9 µM [sample B, mean of 3 tests] and 9.92 µM [sample B, mean of 5 tests] and 9.32 µM [sample B, mean of 6 tests].
